Reference: the supplement of paper PMC11417369
± gives the standard deviation of the averaged measurements. The list shows a part of the results.

Each sequence was assayed on PfAP2-G AP2 domain (GST-tagged) (assay: gcPBM binding intensity (ln(normalized median fluorescence intensity)); higher = stronger DNA binding).
Procedure, shortened: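 After 1 h on an Agilent 4 × 180k array of primer-extended double-stranded 36-bp intergenic genomic probes and negative controls, bound GST-tagged P. falciparum DNA-binding domains were detected with Alexa488 anti-GST antibody and scanned at 488 nm. The domains had been expressed in E. coli, and binding took place in 1× PBS with 1% milk, 0.2 mg/ml BSA, 0.5% salmon testes DNA and 0.03% Triton X-100. Binding intensity is the highest Masliner-normalised natural-log median intensity across replicate spots of either probe orientation.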

Sequence	gcPBM binding intensity (ln)
ATTTATGAAAAGTAAAGTACACACAGGAAAAAAAAA [XGTACX_site3564]	11.4 ± 0.72
AATATATAGGTATTTACACACAATGTGAGATCTATA [CACACA_site3407]	9.955 ± 0.021
TTATAGAACTATATTGCACACATAATATATATATAT [CACACA_site9042]	10.1 ± 0.18
TATAAAAATAAGCACACACACAAATATATATTTATT [CACACA_site922]	10.1 ± 0.26
AAAAAAAAAAAAAAAGGTACACAAATACGTCCTGCA [XGTACX_site3354]	11.5 ± 0.74
GTTATAACTCAAATATGTACATATTATAAAACATAT [XGTACX_site6693]	11.2 ± 0.86
AATTATCAAAGTCTATACATACATACATACATACAT [GTGCAC_negctrl_site243]	10.5 ± 0.38
TAATTATAATAAAAAGGTACAGAAAAGTTATACTCA [XGTACX_site6111]	11.1 ± 0.67
ATAAAATAAATAAATATAAATATATATATATATATA [TGCATGCA_negctrl_site358]	9.7 ± 0.37
CACTCTTAAAATAAGGTGCACTATATAACGTGATTA [GTGCAC_site9422]	10.4 ± 0.42
TATACATATTTACAAGTGCATAATATTTTACAAAAA	10.1 ± 0.26
GAAATAATTGTTAAAGGTACACAATGCATATACAAT [XGTACX_site238]	11.3 ± 0.67
ATAATATATACTAAAAGTACATATTATAATAAATTA [XGTACX_site6749]	11.1 ± 0.95
CATATATTATTTAATAGTACATATAAAAGAAAAAAA [XGTACX_site4643]	11.1 ± 0.49
TATATAAATAAATGTGTACACACATTAAAATCAAAC [CACACA_site8733]	11.6 ± 1.1
TATATACATATATATACACACATATATATATTTTAT [CACACA_site3788]	9.77 ± 0.085
ATTTATTTATTTTTTTGTACGAATGTTGCACATATA [XGTACX_site4101]	10.8 ± 0.37
ACTTCATTTTTTTTATGTACACAGAAGATTTACAAA [XGTACX_site4021]	11.5 ± 0.87
AGGAAAATAGAAAAAGCACACATATATTTTGGAATG [CACACA_site8080]	9.93 ± 0.11
ACATATGTATGAATATCAAAAAATCCCTATTTAATG [GTGCAC_negctrl_site27]	10.04 ± 0.078
AAAATAATAATTAATACATGCATTAATTCTTTTTTT [TGCATGCA_site741]	9.43 ± 0.28
ATTTTCACCTGAACGGTGCATATTTAATTTTAGGTT	10.1 ± 0.13
ATATATGTACAAATTGTGCGCAATAATTTTGTCTTT	11.1 ± 0.54

Sequence	gcPBM binding intensity (ln)
ATAGAAACATATTGACGTACAGTATAATAATACAGT [XGTACX_site197]	11.6 ± 1
AAATCAACTTATTTTTGTACATATATTTATTATATA [XGTACX_site2925]	11 ± 0.47
TCTTTATGTAAGGTCTTCCACAAAAAAATTAAAAAA [TGCATGCA_negctrl_site229]	10.2 ± 0.32
GAAAAATTAATAAATAAACACACATATATATATATA [CACACA_site8835]	10.4 ± 1.1
ATATATTATAGAGGTGTGCACTACATACATTATAAT [GTGCAC_site9991]	10.6 ± 0.35
AAAAAAAAAAAAAGTTGTACATTATTTTCCTAATTC [XGTACX_site7998]	11.2 ± 0.62
TATATTATATGTATTGCACACCTTCAACAACTACTT [CACACA_site8121]	10.12 ± 0.092
TTTAATTAGGATAATTGTACTGAACTAAGTATATTT [XGTACX_site1871]	10.8 ± 0.6
GAATGAAAATAAAATTGTACACATATCTATATCTAT [XGTACX_site2642]	11.4 ± 0.71
TTTTATAAATCTAAACGTATCTAAATGAATAATTAA [GTGCAC_negctrl_site44]	9.92 ± 0.057
ATATGTATTAAGTGTACACATATAATGGGTTTGTTA [CACACA_site5682]	11.7 ± 0.95
ATACATATATATGTGTGTACATATGTGTATACATTT [XGTACX_site6544]	11.3 ± 0.81
CACAAACAAAAACACACACACACACCCACAAAAATG [CACACA_site2429]	10.6 ± 0.34
TATATTTTTTTTGTGCGTACATACCATTTTAATAAT [XGTACX_site2751]	11.7 ± 0.8
TATTTTTATATAATGTGTACTTATACCTTATTTTTT [XGTACX_site1658]	11.4 ± 0.84
TATTATTTTATGAATACACACATATACGAAAATATT [CACACA_site964]	10.1 ± 0.22
AATTATTGTATGCTATACGTTCCCCTCTAATTTATC [CACACA_negctrl_site1052]	10 ± 0.099
ATTGGGTACAAATACACACACATATAAATATTAATA [CACACA_site7173]	11.1 ± 0.93
TTTTTAAATTATTGCACACAAAAATGAAAGGAAAAA [CACACA_site1455]	10.3 ± 0.26
AAAAAAAAAAAACACACACACACACTAATACATACA [CACACA_site8135]	10.12 ± 0.078
TTTCCCTACCAAAAATGTACTTATAAGCGTTTTTAT [XGTACX_site739]	11 ± 0.6
AAGTAAAAAAATAGCACACACACAAAAACACAGACA [CACACA_site4839]	10.4 ± 0.35
